Results reported in PubChem BioAssay AID1346428 (National Center for Advancing Translational Sciences (NCATS), 2018).
In all, about 48,000 compounds went through this assay and about 1,200 (2.5%) were called active. Another 2% or so got no clear call; they are omitted.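 How the source made its calls: active means activation of at least 60% and not above a set upper limit (about 1 call in 100 departs from these limits); inconclusive means activation of 40% to 60%, or above that upper limit; inactive means activation under 40%.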 Some of the results follow.

Target: Probable G-protein coupled receptor 32 (Homo sapiens) (UniProt O75388)
Chain of UniProt O75388 (O75388 whole entry, looked up): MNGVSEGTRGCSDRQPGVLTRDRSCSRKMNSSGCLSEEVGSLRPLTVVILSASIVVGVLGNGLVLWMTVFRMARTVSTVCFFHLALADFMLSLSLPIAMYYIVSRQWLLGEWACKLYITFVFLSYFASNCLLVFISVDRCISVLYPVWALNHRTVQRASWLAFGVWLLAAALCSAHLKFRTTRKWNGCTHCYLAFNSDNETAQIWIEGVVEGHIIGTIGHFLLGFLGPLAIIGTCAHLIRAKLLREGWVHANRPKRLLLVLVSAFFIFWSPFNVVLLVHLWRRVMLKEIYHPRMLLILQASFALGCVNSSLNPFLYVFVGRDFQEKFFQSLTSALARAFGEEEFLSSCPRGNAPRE
Test: qHTS for Agonists of Human Resolvin D1 Receptor DRV1; further: 0% is about no effect
Details: CHO-K1 GPR32 beta-arrestin PathHunter luminescence, 90 min; at 76.9 µM; stronger effect = higher value; zero percent set by DMSO-only wells
Procedure, shortened: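 CHO-K1 cells stably expressing ProLink-tagged GPR32 and Enzyme Activator-tagged beta-arrestin were seeded at 2,500 cells/well overnight, exposed to compounds for 90 min at 37 °C, then read by beta-Gal complementation chemiluminescence after 1 h detection reagent.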

Row | SMILES | activation
1 | CC(=O)N[C@@H](CCC(=O)O)C(=O)O | inactive: 1.09%
2 | O=S(=O)(c1ccccc1)c1nc(-c2ccc(Cl)cc2Cl)oc1N1CCCCCC1 | inactive: 0.817%
3 | CN(C)CCC[C@@]1(c2ccc(F)cc2)OCc2cc(C#N)ccc21 | inactive: -2.96%
4 | COc1ccc(CNC(=O)Cn2nnc(-c3ccc(S(C)(=O)=O)cc3)n2)cc1 | inactive: -1.99%
5 | COc1cccc2c1cc1c(=O)n(CC(=O)N3CCN(c4cc(Cl)ccc4C)CC3)nc(C)n12 | inactive: -11.3%
6 | COc1cccc(-c2cc(C(=O)Nc3cc(OC)c(OC)c(OC)c3)on2)c1 | inactive: -12%
7 | O=C(CCCn1c(=O)c2cccn2c2cccnc21)NCc1ccc(F)cc1 | inactive: -29.6%
8 | CCC1CCCCN1CC(=O)N1CCCc2c1c(=O)oc1ccc(OCc3ccccc3)cc21 (stereo unspecified) | inactive: -6.53%
9 | COc1ccc(-c2nc(Cn3c(SCc4ccc(C)cc4)nc4cccnc43)c(C)o2)cc1OC | inactive: -16.6%
10 | CCOc1ccc(-n2c(C)nc3cc(C(=O)NCCC4=CCCCC4)ccc32)cc1 | inactive: 1.39%
11 | COc1ccc(CNC(=O)CCC(=O)N2CCSc3ccccc32)cc1 | inactive: -8.1%
12 | COc1ccc(C(=O)CC2(O)C(=O)N(Cc3ccccc3Cl)c3ccccc32)cc1 (stereo unspecified) | inactive: -3.81%
13 | CCN1CCN(c2ccc(NS(=O)(=O)c3c(C)nc4sccn4c3=O)cc2Cl)CC1 | inactive: 4.47%
14 | COc1ccc(-c2nnc(SCC(=O)Nc3ccc(Cl)cc3)s2)cc1 | inactive: -3.29%
15 | CCOC(=O)c1ccc(NC(=O)C2=C(C)Nc3nc(SCc4ccc(Cl)cc4)nn3C2c2ccc(OC)cc2)cc1 (stereo unspecified) | inactive: 3.16%
16 | Nc1ncc(S(=O)(=O)NCc2ccc(Cl)cc2)cn1 | inactive: -0.594%
17 | COc1ccc(Cl)cc1NC(=O)Cn1cc(C(=O)c2ccncc2)c(=O)c2cc(C)ccc21 | inactive: -21.5%
18 | CC(C)NC(=O)c1ccc(-n2c(-c3ccccc3)cc3c2CCCCC3)cc1 | inactive: -32.2%
19 | CCC(Sc1nc2cc(OC)c(OC)cc2c(=O)n1CCc1ccc(Cl)cc1)C(=O)NCCOC (stereo unspecified) | inactive: -16.5%
20 | Cc1ccc(NC(=O)N(Cc2cn(C)c3ccccc23)C2CCCCC2)cc1C | inactive: -7.4%
21 | O=C(CSc1nc2ccccc2n1Cc1ccccc1F)NCc1ccccc1 | inactive: -9.63%

Row | SMILES | activation
22 | Cc1ccccc1C(=O)Nc1cccc(C(=O)OCc2cc(=O)n3c4c(sc3n2)CCCC4)c1 | inactive: -13.1%
23 | CCOc1ccc(-c2cc(OC(=O)c3ccccc3)c3c(C)oc(C)c3c(=O)c2)cc1 | inactive: -13%
24 | Cn1nnc2c(N3CCN(c4ccccc4F)CC3)ncnc21 | inactive: -0.429%
25 | COc1cc2nc(SCc3cccc(Cl)c3)n3nc(CCn4nc(C)cc4C)nc3c2cc1OC | inactive: 3.15%
26 | Cc1cc(C)cc(OCC(=O)Nc2ccc(-c3nc4ccccc4s3)cc2)c1 | active: 72.2%
27 | COc1ccc(N(CC(=O)NCCc2ccccc2)S(=O)(=O)c2ccccc2)c(OC)c1 | inactive: -15.6%
28 | Nc1ncnc2c1ncn2[C@@H]1O[C@H](COP(=O)(O)OP(=O)(O)OP(=O)(O)OP(=O)(O)OC[C@@H]2O[C@H](n3cnc4c(N)ncnc43)[C@@H](O)[C@H]2O)[C@@H](O)[C@H]1O | inactive: -5.14%
29 | Cc1ccc2oc3c(c(=O)c2c1)C(c1ccccc1F)N(CCCN1CCOCC1)C3=O (stereo unspecified) | inactive: -3.78%
30 | Cc1ccc(-n2c(SCC(=O)NCc3ccc(F)cc3)nc3c([nH]c4ccccc43)c2=O)cc1 | inactive: -18.3%
31 | CCCCNC(=O)CSc1nc2cc3c(cc2c(=O)n1CCCCCC(=O)NCc1ccc2c(c1)OCO2)OCO3 | inactive: -8.1%
32 | COc1cc2c(cc1OC)C(COc1ccc(F)cc1)N(C(=O)Cc1ccc(F)cc1)CC2 (stereo unspecified) | inactive: -10.4%
33 | Cc1cc(C)cc(NC(=O)CCc2c(C)nn(-c3ccc(N4CCCC4)nn3)c2C)c1 | inactive: 1.61%
34 | CCOc1ccc(OCC)c(S(=O)(=O)N2CCN(c3cccc(C)c3C)CC2)c1 | inactive: -1.01%
35 | Cc1ccc(Nc2c(-c3ccncc3)nc3ccc(C)cn23)cc1 | inactive: -16.1%
36 | CCOC(=O)C1CCN(c2ncnc3c2nnn3C)CC1 | inactive: 2.96%
37 | Cc1ccc(CN(C(=O)COc2cccc([N+](=O)[O-])c2)c2ccccn2)cc1 | inactive: -8.41%
38 | Cc1ccccc1-c1nn2c(=O)cc(CN3CCN(C(=O)c4ccc(C(C)(C)C)cc4)CC3)nc2s1 | inactive: 24.7%
39 | CCOC(=O)N1CCc2c(sc3c2c(=O)n(CCc2ccccc2)c(=O)n3Cc2ccc(F)cc2)C1 | inactive: -19.5%
40 | O=C(CSc1nc(-c2ccccc2)no1)N1CCCCC1 | inactive: 4.44%
41 | COc1ccc(C(=O)CN2C(=O)N(c3ccc(C(C)=O)cc3)S(=O)(=O)c3ccccc32)cc1 | inactive: 1.33%
